Assay results published in article PMC4336329 (PLoS ONE, 2015).
The whole screen tested about 310,000 compounds, of which about 2,200 (0.71%) showed an effect of 50% or more. Effects have a minus sign here. The list shows a part of the results.

target: human ether-à-go-go-related gene (hERG) potassium channel (human, UniProt Q12809); experiment: primary screen, population patch clamp on CHO cells stably expressing hERG
Sequence (Q12809 whole entry, looked up): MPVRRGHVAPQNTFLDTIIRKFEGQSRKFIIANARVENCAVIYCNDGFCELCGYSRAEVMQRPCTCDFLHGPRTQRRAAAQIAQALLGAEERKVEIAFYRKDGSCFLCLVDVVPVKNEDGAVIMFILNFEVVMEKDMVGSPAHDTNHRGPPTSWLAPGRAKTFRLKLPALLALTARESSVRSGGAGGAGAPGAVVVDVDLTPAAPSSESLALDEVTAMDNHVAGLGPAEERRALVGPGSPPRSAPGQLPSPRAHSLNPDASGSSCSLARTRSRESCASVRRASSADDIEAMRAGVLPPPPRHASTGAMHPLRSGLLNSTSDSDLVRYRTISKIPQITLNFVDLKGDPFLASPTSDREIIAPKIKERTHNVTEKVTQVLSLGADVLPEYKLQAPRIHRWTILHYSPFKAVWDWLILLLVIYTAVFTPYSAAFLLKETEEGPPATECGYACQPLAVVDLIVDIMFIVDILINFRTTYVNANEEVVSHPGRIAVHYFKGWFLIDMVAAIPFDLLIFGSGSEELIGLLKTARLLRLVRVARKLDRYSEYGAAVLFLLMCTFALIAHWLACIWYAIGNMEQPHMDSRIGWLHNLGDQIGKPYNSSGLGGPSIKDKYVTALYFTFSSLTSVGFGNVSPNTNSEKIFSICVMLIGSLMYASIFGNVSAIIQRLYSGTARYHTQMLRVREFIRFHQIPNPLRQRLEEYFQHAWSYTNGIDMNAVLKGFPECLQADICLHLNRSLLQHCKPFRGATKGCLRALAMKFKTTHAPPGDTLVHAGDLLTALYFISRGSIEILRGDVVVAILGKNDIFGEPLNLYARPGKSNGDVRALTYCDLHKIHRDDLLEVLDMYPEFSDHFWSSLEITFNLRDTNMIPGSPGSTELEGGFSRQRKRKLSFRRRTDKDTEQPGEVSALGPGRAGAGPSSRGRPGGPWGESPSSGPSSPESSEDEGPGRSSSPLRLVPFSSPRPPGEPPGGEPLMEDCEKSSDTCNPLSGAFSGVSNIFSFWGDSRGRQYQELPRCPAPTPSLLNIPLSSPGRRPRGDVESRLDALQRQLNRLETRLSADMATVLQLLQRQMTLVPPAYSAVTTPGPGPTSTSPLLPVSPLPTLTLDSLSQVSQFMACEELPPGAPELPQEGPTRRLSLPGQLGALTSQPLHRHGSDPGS

Row | Structure (SMILES) | hERG current change (%, negative = inhibition) at 1uM [%]
1 | CCN(CC)S(=O)(=O)c1cc(NC(=O)CCNC(=O)c2ccco2)ccc1C | 8.26
2 | COc1ccccc1N(C(=O)Cn1nnc2ccccc21)C(C(=O)NCc1ccco1)c1ccc(C)o1 (stereo not shown) | 8.67
3 | CCOC(=O)NC(=S)c1ccc[nH]1 | 7.62
4 | CCOC(=O)C1CCCN(C(=O)CCCn2nc(C)n3c(cc4sccc43)c2=O)C1 (stereo not shown) | -10.4
5 | Cc1ccnc(NS(=O)(=O)c2ccc(N3C(=O)C4CCCCC4C3=O)cc2)n1 (stereo not shown) | 18.9
6 | Cc1cc(C)n(C(=O)c2cccc(S(=O)(=O)N3CCCCC3)c2)n1 | 9.1
7 | CSc1nc(C)cc(SCC(=O)Nc2ccccc2)n1 | -11.2
8 | Clc1ccccc1CSc1nnc(-c2ccccn2)n1Cc1ccco1 | 0.889
9 | O=C(COc1ccc(-c2ccccc2)cc1)N/N=C/c1ccccc1Br | 16.3
10 | N#CC(C#N)=NNc1ccc(-n2ccc(C(F)(F)F)n2)cc1 | -24.2
11 | COCCn1c(=O)[nH]c2cc(C(=O)N3CCN(c4cc(C)ccc4C)CC3)ccc2c1=O | 7.26
12 | Cc1cc(C)c(CN2CCCC(CNC(=O)c3ccc(F)cc3)C2)c(-n2cccn2)c1 (stereo not shown) | -85.4
13 | NC(=S)N/N=C1\CCOc2ccc(F)cc21 | 4.33
14 | CCCCCCCN=C(C)c1ccccc1O | 13.6
15 | CCc1cccc(C)c1NC(=O)CCCn1c(=O)c2cccn2c2cccnc21 | 4.77
16 | CC(=O)Nc1cc2c(cc1C(=O)c1ccccc1)OCCO2 | -0.64
17 | COc1cccc(C(=O)Nc2ccc(N3CCN(S(C)(=O)=O)CC3)cc2)c1 | 17
18 | Fc1ccc(C2=Nn3c(nnc3-c3ccco3)SC2)cc1 | 12
19 | CC(C)(C)c1cc(C(=O)NCCN2CCCC2)cc(C(C)(C)C)c1 | 8.86
20 | O=[N+]([O-])c1ccccc1S(=O)(=O)c1ccccc1 | 11.6
21 | COc1ccc2oc(C(=O)NCCN3CCOCC3)c(C)c2c1OC | 9.86
22 | O=C(NNc1ccccc1[N+](=O)[O-])Nc1ccccc1 | 10.2

Row | Structure (SMILES) | hERG current change (%, negative = inhibition) at 1uM [%]
23 | O=C(CN1C(=O)C2CC=CCC2C1=O)Nc1nc2ccccc2[nH]1 (stereo not shown) | 7.86
24 | CC(=O)c1ccc(OC(=O)c2nc(-c3ccccc3)oc2C)cc1 | 17.3
25 | COc1ccc(Cc2nnc(SCC(=O)Nc3ccccc3C#N)o2)cc1 | -8.61
26 | O=C(NCCc1nc(-c2ccccc2Cl)no1)C1CCCCC1 | 6.51
27 | Cc1cccc(C(=O)NNC(=O)c2ccccc2)c1 | 4.98
28 | COc1cc(NC(=O)Cc2ccc([N+](=O)[O-])cc2)c(C(=O)O)cc1OC | 2
29 | CCN(CC)S(=O)(=O)c1cccc(N2CC(O)=C(c3ccccc3)C2=N)c1 | 12.3
30 | O=C(Nc1ccc(Cl)c(S(=O)(=O)N2CCCCC2)c1)c1ccco1 | 5.63
31 | CCN(CC)C(=O)COc1coc(CN2CCN(c3cccc(Cl)c3)CC2)cc1=O | 0.464
32 | Cc1cc(/C=C2/NC(=O)NC2=O)c(C)n1C | 12.1
33 | COc1ccccc1N1CCN(C(=O)c2ccc(Cl)c(S(=O)(=O)N3CCOCC3)c2)CC1 | 1.45
34 | COC(C(=O)Nc1ccc(Br)cc1F)c1ccccc1 (stereo not shown) | 19.3
35 | COC(=O)c1ccccc1NC(=O)CN1CCN(C(=O)c2ccco2)CC1 | -7.42
36 | CC1CCN(c2nnc(NC(=O)Cn3c(=O)oc4ccccc43)s2)CC1 | 15.1
37 | CCOC(=O)C1CCN(C(=O)CN(c2ccc(Oc3ccccc3)cc2)S(C)(=O)=O)CC1 | 4.25
38 | CCOC(=O)CCCNC(=O)CN1C(=O)NC(CCc2ccccc2)C1=O (stereo not shown) | 3.35
39 | CCCOc1ccc(CCC(=O)N/N=C/c2ccncc2)cc1 | 6.16
40 | Cc1cccc(NC(=O)NNC(=O)COc2ccc3ccccc3c2)c1 | 17.8
41 | Cc1cc(NS(=O)(=O)c2ccc(NC(=O)C(CC(C)C)N3C(=O)c4ccccc4C3=O)cc2)nc(C)n1 (stereo not shown) | 16.6
42 | O=c1[nH]c(C2CCN(S(=O)(=O)/C=C/c3ccccc3)CC2)nc2c1nnn2Cc1ccc(F)cc1 | 12.5
43 | CCOCCn1c(C)c(C(=O)OCC)c2cc(O)c3ccccc3c21 | 11.1
44 | CCOc1ccc(NC(=O)c2ccc(N3CC4CC(C3)c3cccc(=O)n3C4)c(NC(=O)c3cccnc3)c2)cc1 (stereo not shown) | 11.8

Row | Structure (SMILES) | hERG current change (%, negative = inhibition) at 1uM [%]
45 | CCN(CC)C(=O)C(Cc1ccccc1)N1C(=O)c2ccccc2C1=O (stereo not shown) | 7.79
46 | OCC1CCCN1C(=S)Nc1ccccc1 (stereo not shown) | 14
47 | O=C(Nc1nnc(SCC(=O)N2CCOCC2)s1)C1CC(=O)N(c2ccc(F)cc2)C1 (stereo not shown) | 7.58
48 | COc1cc(OC)cc(N(C(=O)c2snc(C(N)=O)c2N)C(C(=O)NCC2CCCO2)c2ccc(C)o2)c1 (stereo not shown) | 7.37
49 | Cc1ccc(NC(=O)CNCc2cccs2)cc1Br.Cl | 13.9
50 | COc1cc(-c2cc(-c3ccc(N)cc3)[nH]c(=O)c2C#N)cc(OC)c1OC | 14.6
51 | COCCSc1ccccc1C(=O)Nc1ccc2c(c1)OCO2 | 8.78
52 | CC(C)[C@H](NC(=O)[C@@H]1CSC2c3ccccc3C(=O)N21)C(=O)NCc1ccncc1 (stereo partly shown) | 13.4
53 | C=CCSc1ccsc1C(=O)O | 5.39
54 | Cc1cc(NC(=O)COc2ccc([N+](=O)[O-])cc2)no1 | 7.64
55 | Cc1ccc(C(=O)CCC(=O)Nc2ccc(C)cn2)cc1 | 14.4
56 | COc1ccc(C(=O)NCCc2c[nH]c3ccccc23)cc1S(=O)(=O)N1CCOCC1 | 10.8
57 | Cc1cc(C)n(C(=O)Cn2nc(C)c(Br)c2C)n1 | 14.9
58 | CCN(CC(=O)NCc1cccs1)C(=O)c1ccc(-c2ccccc2F)o1 | -7.69
59 | O=C(O)c1cc2c(ccc3ccccc32)oc1=O | 5.68
60 | COCCCn1c(N)c(C(=O)OC(C)COC)c2nc3ccccc3nc21 (stereo not shown) | 5.42
61 | C=C(C)CSc1nnc(CCNC(=O)OC(C)(C)C)o1 | 5.7
62 | CCOc1cccc(CN2CCC(n3nccc3NC(=O)CCCc3ccccc3)CC2)c1 | 9.19
63 | CSc1sc(-c2ccnc(=S)[nH]2)c(-c2ccccc2)c1C#N | 15.8
64 | Cc1ccc(/C=C/C(=O)Nc2cc(=O)n(C)c(=O)n2C)o1 | 5.57
65 | CCC(=O)NNC(=O)c1c(O)c2ccccc2[nH]c1=O | 10.6
66 | Clc1cccc(Cn2ncc3ccccc32)c1 | 11.4

Row | Structure (SMILES) | hERG current change (%, negative = inhibition) at 1uM [%]
67 | Cn1c(=O)cc(SCC(=O)NCCCN2CCN(c3ccc(F)cc3)CC2)c2ccccc21 | -39.8
68 | O=[N+]([O-])c1cccc(/C(=N/N=C/c2ccccc2Br)C23CN4CN(CN(C4)C2)C3)c1 | 3.43
69 | CN(CCOCCOc1ccc2ccccc2c1)Cc1ccccc1 | 9.46
70 | COc1ccc(C(=O)c2sc3nc(-c4ccccc4)ccc3c2N)cc1OC | 13.4
71 | Cc1ccc(-n2c(=O)c3c4c(sc3n3c(=S)[nH]nc23)CCC4)cc1 | 17.7
72 | CN(CCc1ccccn1)C(=O)c1cccnc1Oc1ccccc1 | 9.66
73 | CN(Cc1ccccc1)C1CCCN(C(=O)COc2ccccc2Cl)C1 (stereo not shown) | -8.17
74 | CC(=O)Nc1ccccc1OCC(=O)N(Cc1ccccc1)C(C)C | 15.2
75 | CC(OC(=O)Cn1nnc2ccccc21)C(=O)NC1CCCC1 (stereo not shown) | 6.75
76 | N#Cc1ccc(CN2CCN(C(=O)Cn3nc(C(N)=O)c4ccccc4c3=O)CC2)cc1 | -6.49
77 | O=C(CCn1c(=O)[nH]c2ccccc2c1=O)NCCCN1CCN(c2cccc(Cl)c2)CC1 | -30
78 | COc1ccc(N2CCN(C(c3ccccc3)c3nnnn3Cc3ccc(F)cc3)CC2)cc1 (stereo not shown) | 3.32
79 | CCOc1cc(NC(=S)NCCCN2CCOCC2)c(OCC)cc1NC(=O)C(C)C | 16.2
80 | O=[N+]([O-])c1ccc(SCc2ccco2)cc1N1CCOCC1 | 5.68
81 | Cc1ccsc1C(=O)C1CCCN(Cc2cnc(N3CCCC3)s2)C1 (stereo not shown) | 3.05
82 | COc1ccc(CNCc2c(O)c(Cl)cc3c(C)c(C)c(=O)oc23)c(OC)c1.Cl | 3.03
83 | CCOC(=O)COn1c(=O)c(-c2ccc(OC)cc2)[n+]([O-])c2ccccc21 | 11
84 | COc1cc([N+](=O)[O-])ccc1NC(=O)CCCOc1cccc(C)c1 | 5.93
85 | COc1cccc(C2NC(C)(C(=O)O)C3C(=O)N(C(C)C)C(=O)C23)c1O (stereo not shown) | 0.0996
86 | CCOC(=O)NC1(C(F)(F)F)NC(=O)N(c2cccc(C(F)(F)F)c2)C1=O (stereo not shown) | 4.97
87 | O=C(O)c1ccccc1N=Nc1c(O)[nH]c(=O)[nH]c1=O | 13
88 | COc1ccccc1N1CC(C(=O)Nc2nnc(SCC(=O)N3CCCC3)s2)CC1=O (stereo not shown) | 4.54
